# According to the RNAGym collection of RNA variant scans (doi:10.7554/elife.90254):
# The source gives no read counts; variants with many changes may rest on few reads.
# B1: LINE1-mini (parent)
# chain: GGCAGAGCUCAACACAGCGUGGCAAAGUGGCUGUGGCUAGACUGCC
# Variants of: B1
# Assay: self-cleavage, relative activity (ratio to wild type); higher = more cleavage; in vitro, sequencing; the parent is a self-cleaving ribozyme
row,Variant,self-cleavage
1,C8A A25G U43C,0.49
2,G7U U20G A24G C37G,0.01
3,G7U U9A G19U G30A,0.17
4,C8A A12G A26C U34G C42U,0.07
5,C8A A14U C31U C46A,0.03
6,G7U U28G U38A G40U,0.12
7,G7U U28G C46A,0.02
8,C8A A24U A25C U38C U43G,0.04
9,G7U U9A A39C A41G,0.08
10,C8A A26C U28A U38G,0
11,G7U U20G C37U,0
12,C8A A11G C13A U43C,0.02
13,G7U G30U G36U C46U,0.07
14,G7U U20G U32G G36U C42U,0.01
15,G7U G29C G30U,0.06
16,C8A A14G G17U G33U,0.13
17,C8A A14U G40C C46G,0.05
18,C8A A16C U20A,0.1
19,G7U U9G G35A,0.03
20,C8A A14C A39U,0.04
21,C8A A14C U20G G22A,0.09
22,G7U G36U C37U,0.01
23,C8A A16U G22U A39U,0.12
24,G7U U32G U38G G44C,0.01

row,Variant,self-cleavage
1,G7U U9G C31A C37A,0.01
2,G7U U9C A24U G33C,0.04
3,G7U U9G A16U,0.09
4,C8A A11C A41C C42G,0.03
5,G7U G29U A41U,0.21
6,C8A A14C G30C C37U,0.03
7,G7U U9C A11U G35U,0.01
8,C8A A16C G44C,0.06
9,C8A A12U G19U C46U,0.07
10,G7U U20C G21U,0.23
11,C8A A24U G33A,0.05
12,C8A A11G C18A G29C C31U G40U,0
13,C8A A11G G30A,0.01
14,C8A A16C A41G,0.05
15,C8A A11U G27U U34C U38C,0.01
16,C8A A11G G21A,0.06
17,C8A A12U G44U,0.27
18,C8A A24U A25U G44A,0.17
19,C8A A11C G35C,0.02
20,C8A A14C G40A G44U C46A,0.13
21,C8A A24C G35C,0.13
22,C8A A16U A26G C31G U38A,0.02
23,C8A A16C C23U,0.85
24,C8A A11C A12C C18G,0

row,Variant,self-cleavage
1,C8A A14G C46A,0.37
2,G7U U20G G30A C37A A39U C45U,0.08
3,C8A A12C G36C,0.04
4,G7U U9G A16C A39U,0.08
5,G7U U20A G29A,0
6,G7U U20G G22C U38A,0.02
7,C8A A16C C45U,0.6
8,C8A A16U G29U,0.16
9,G7U U28G U32G,0.1
10,C8A A24U U32C U34A G36U C46U,0.25
11,C8A A14U G21U C37U,0.03
12,C8A A14C A25C A26U C42U G44U,0.14
13,G7U G33A G36A A39U,0.05
14,G7U U38G C42U,0.05
15,C8A A16C U32G U43A,0
16,C8A A12U U28C,0.01
17,C8A A11G G33A,0.07
18,G7U U9C A12C U28C G33U C37A,0.01
19,C8A A11C G27A,0.07
20,C8A A11U G17U A39U,0.02
21,C8A A14G G22A C46A,0.14
22,C8A A12U G17A C46G,0.27
23,C8A A25U C45G,1.09
24,G7U G30A C31U A41C,0.08

row,Variant,self-cleavage
1,C8A A11C C18A G33A,0.05
2,G7U U20G U38A C42U,0.04
3,G7U U20G A39U,0.03
4,G7U U9C G21C U28G,0.01
5,C8A A11C G19U A24U G44U,0
6,C8A A12G C23U A41U,0.06
7,C8A A11U C15G,0.02
8,C8A A12G U38A,0.31
9,C8A A24G G30A,1.09
10,G7U G40U C42A,0.2
11,G7U U9C C23A,0.02
12,C8A A14C G19C U43A,0.03
13,C8A A14U G21A A24G A26U U38G A41C,0.02
14,G7U G44U C46G,0.04
15,C8A A14C G40C C46G,0.14
16,G7U G35U G44A,0.16
17,G7U U9G C10A A14G U20G,0.02
18,C8A A26C C45A,0.23
19,C8A A11G U28A,0.04
20,G7U U38G C46G,0.03
21,C8A A26C U38G,0.01
22,G7U U34C G36U,0.03
23,C8A A16U A25U U38G,0.05
24,G7U U20C A39G,0.03

row,Variant,self-cleavage
1,G7U U9G C15U U43A,0.27
2,C8A A11U C42A,0.01
3,G7U U43G C46A,0.11
4,C8A A24G A25U G29C G36A A41U,0.11
5,G7U U28C G29U,0.08
6,G7U U20A G36U,0.1
7,G7U U20A G36C,0.13
8,C8A A11U C31U,0.11
9,C8A A11U C13U,0.04
10,C8A A26U C31A,0.78
11,C8A A14G C18G,0.05
12,C8A A14G G21U C45A,0.2
13,C8A A16C G36C,0.19
14,C8A A11U C23A A26G G29C,0.01
15,C8A A16G A25G G29U,0.02
16,C8A A12G C15G U32C G33U,0.08
17,G7U G29A A39G,0.03
18,C8A A14U G27A,0.23
19,G7U G33A C37A,0.07
20,C8A A11C C45U,0.03
21,C8A A12C C15G A25G,0.02
22,C8A A25U C42U,0.24
23,C8A A12U C31G,0.05
24,G7U U9C G40U G44C,0.01

row,Variant,self-cleavage
1,C8A A14G G36U,0.06
2,C8A A12U U20G G35A C46G,0.12
3,C8A A16C G29U G40U,0.08
4,C8A A24C C42A,0.18
5,C8A A24G G35U,0.08
6,G7U G30U C31G G33U C45U,0.03
7,G7U U20G C23A G35U,0.11
8,C8A A12C A16U C42G,0.1
9,G7U U9G C45U,0.03
10,C8A A25U U38A C42U,0.45
11,G7U G35U C46G,0.16
12,G7U U9A C23U G36U,0.1
13,G7U G29C C42G,0.02
14,G7U U28G A39U C42G C45U,0.01
15,C8A A16C G29U G36A,0.19
16,G7U U9A A26C G33A,0.05
17,C8A A11C C18U A26U C45G,0.01
18,C8A A11U G29C,0.01
19,G7U U34C C46U,0.06
20,G7U U28C G33U,0.32
21,C8A A14G G19C G29A,0.42
22,G7U U9A G19C A25U,0.02
23,C8A A14C G44U,0.04
24,C8A A16G G33U,0.01

row,Variant,self-cleavage
1,C8A A12U G36A,0.02
2,G7U G29A G36A A39U,0.1
3,G7U U9A G27U C31G U32C C46A,0.21
4,C8A A11U U38A C46G,0.01
5,C8A A25G C42A,0.13
6,G7U U38A A41U,0.05
7,C8A A14U G33U,0.12
8,G7U U20G C42U,0.02
9,C8A A14G C15U,0.16
10,C8A A11U C18G,0.02
11,G7U U9A G30U G40C,0.03
12,G7U U9C C42U,0.04
13,C8A A14C C31U G33U C42U,0.07
14,C8A A16G U38C,0.04
15,G7U U9A C23G U32G,0.11
16,C8A A24G G33A G44A C45A,0.61
17,C8A A11C G36C,0.02
18,C8A A12G G40A U43C,0.07
19,G7U U28C G40C,0.31
20,C8A A12U G27A,0.14
21,G7U U9C C13U C15G G19C,0.04
22,G7U U9G C37U,0.03
23,C8A A11U G22A,0.05
